Sequences and labels used below:
B1: CPEB3 Ribozyme (parent)
chain: UAACAGGGGGCCACAGCAGAAGCGUUCACGUCGCAGCCCCUGUCAGAUUCUGGUGAAUCUGCGAAUUCUGCUGUAUAUCUC

Read counts are not given, so values of variants with three or more changes are uncertain.

Results on 167 variants are retold here after the RNAGym collection of RNA variant scans (doi:10.1093/nar/gkz1192).

The variants in this data set derive from B1. Kind of data set: self-cleavage, relative activity (ratio to wild type); higher = more cleavage; in vitro, sequencing. The method in brief:
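Libraries of CPEB3 self-cleaving ribozyme mutants came from rounds of error-prone PCR and carried barcodes, which DNA sequencing matched to variants. In vitro transcription used T7 RNA polymerase at 37°C for 5 hours, with a further 15 min in DNase I before EDTA stopped the reaction; the ribozymes cleaved during both steps. The RNA was reverse transcribed with template switching and sequenced on Illumina. Relative activity is the cleaved/total read fraction of a variant divided by that of the unmutated ribozyme, averaged over three batches with at least 5 reads.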
In the case of A3G U43A U49A U80C, the self-cleavage stood at 0.73.
Then A3U A15G G33A A35U U78C, with 0.16; and A3G U51A A57G U69C, with 0.15.
The same measure for A3G U48C U67C: 0.23; for A3G U67C U69C: 0.51.
Then A3U A13U A21U G24C U25C C50A, with 0.03; and A3U A20G A28G A64U, with 0.1; and A3G U43C A47G U72A, with 0.5.
Take A3G U41C U51C G63A U67C: the self-cleavage worked out at 0.42.
For the variant A3G U54C A65U U72C, the self-cleavage turned out to be 0.26.
In the case of A3G U60A C68U, the self-cleavage is 0.44.
The same measure for A3U A13G A15U A35U A64G: 0.39; for A3U A20U A21G U31C A45G U49C: 0.05; for A3U A13U U48C A64U U72C U78C U80C: 0.23.
Then A3U A20U C38U U48C U69C A75G, with 0.11; and A3U A5G A15U C34U G53U U54C G70C, with 0.05.
Then A3G U41A U60A A77G, with 0.04.
In the case of A3U A13G A15G C39U G52U, the self-cleavage is 0.37.
The same measure for A3U A13G A15G U26A A45U U60C U72A: 0.02.
Then A3U A18G A20U U51C U67C U69C U80C, with 0.15.
Then A3U A13G A56G C71U U74C U78C, with 0.56; and A3G U41C A45U U49C U51C, with 0.48.
Regarding A3G U72C U78A, the self-cleavage is 1.18.
Consider A3U A13G U26C U67C, for which the self-cleavage worked out at 0.24.
Consider A3G U51A U54A A56G U60G, for which the self-cleavage was 0.41.
Then A3G U58G U67C, with 0.34.
A3G U48C U60G: the self-cleavage was found to be 0.47.
The same measure for A3U A5G U25A A57G: 0.18; for A3G U66C C81A: 0.68.
On to A3U A5G A20U C23G U26A, for which the self-cleavage came out at 0.48.
Then A3U A18G C37U A64U U67A U78C, with 0.05; and A3G U41C U43A A64G U69C, with 0.31; and A3G U43A A45U A47C A75G, with 0.08.
Then A3U A13C C17U U25C U80C, with 0.63.
The same measure for A3U A18U C29U A75G: 0.14; for A3U A15G U49C U60C A64G: 0.19; for A3U A15U A35G A45G U51G U69A U78C: 1.01.
Turning to A3U A21G U49C U72C, the self-cleavage amounted to 0.1.
In the case of A3G U43C U60A, the self-cleavage was 0.39.
Then A3G U41C A64U U80C, with 0.25; and A3U A15G A47U, with 0.33.
The same measure for A3G U51C G52U: 1.27; for A3G U66C U74C: 0.5; for A3G U41C U51G A56U: 0.58.
The same measure for A3U A18U U41C G61A U69G C79U: 0.44; for A3U A21G U26A C37G U60C: 0.23; for A3U A15C A28C C37U: 0.13.
Take A3U A15G G19U C23A U26C A35G: the self-cleavage was 0.07.
Then A3G U51A A65G, with 0.43; and A3G U41C U49C A57G U66C, with 0.19.
The same measure for A3G U43A U72A A77U: 0.9.
The same measure for A3U A5G G7U A18U U31C A35U U49A: 0.06; for A3G U43C A56G: 0.45; for A3U A15G C34G U41C A64G C81A: 0.12.
For A3U A18G A35G C40A, the self-cleavage worked out at 0.44.
The same measure for A3U A20G A45C U67A: 0.11; for A3G U43A A45G U49C: 0.11; for A3G U66C U72C: 0.57.
The same measure for A3U A13U G30A C50A C62G A65G: 0.23.
The same measure for A3U A13U U31C A35G C62U: 0.32; for A3U A13G C38A U41C G46A U48G U66C: 0.11; for A3U A20G U41C U69A U78C: 0.51.
Turning to A3G U60C A64U, the self-cleavage amounted to 0.16.
On to A3G U43C U60C U67A, for which the self-cleavage was determined as 0.21.
Then A3G U41C A45G A65G U74A, with 0.48; and A3G U41C A57G G73A, with 1.21.
Take A3U A13U A18G U26A A57G U58C: the self-cleavage is 0.12.
Then A3U A20U C23G U25C A45G A57G U80C, with 0.11.
Then A3G U48C C59A U78C, with 0.07.
Then A3U A13U U48C, with 1.04; and A3G U54C U80C, with 1.1; and A3G U72C U80A, with 1.23.
Regarding A3G U72C U80C, the self-cleavage came to 1.27.
The same measure for A3U A5C A13G U31C U48C U74A C79U: 0.27; for A3U A18G A47U: 0.42; for A3U A5G A35G C37U A65U U72C: 0.32.
The same measure for A3G U58G U67A U69C: 0.25.
Then A3G U41C U69C, with 0.61.
Consider A3U A20G U26C U31A U67A, for which the self-cleavage was determined as 0.4.
The same measure for A3U A5U U25A U51C A64G: 0.23.
Then A3G U60C U78G, with 0.82; and A3U A15G A28C U58C U60C U74C, with 0.1.
As to A3G U76C U78C, the self-cleavage came to 0.92.
Then A3G U76C U78A, with 1.19.
Then A3G U51C U69C, with 0.64; and A3U A15G U51C, with 0.7; and A3G U51A U80C, with 1.11.
A3G U41C U67C U69A: the self-cleavage amounted to 0.37.
The same measure for A3G U49C U54A A57G: 0.5; for A3G U48C G55A U58C: 0.22.
Consider A3G U49A U54C, for which the self-cleavage is 0.67.
For A3U A20G A35G U41A, the self-cleavage was determined as 0.41.
With A3U A15U G42A U48C C79U, the self-cleavage came out at 0.09.
Turning to A3U A18G U31C, the self-cleavage was determined as 0.49.
The same measure for A3U A18G U41A: 0.51.
The same measure for A3U A18G U41G: 0.46; for A3U A21G G61C U67C U69A: 0.08.
Take A3U A15U A21U A28G A47U U74A: the self-cleavage was 0.1.
The same measure for A3G U48C U54C A57G U60A: 0.94; for A3U A18G G24U U25C U49C U80C: 0.09.
The same measure for A3U A13U U41A U60C: 0.08; for A3G U43G U58C: 0.1.
The same measure for A3U A18C U58G A64G G70A: 0.09; for A3U A5G A56G U60C: 0.05; for A3U A18G U41A A45C U48A U78C: 0.25.
With A3U A15G A45G, the self-cleavage stood at 0.75.
Regarding A3U A18G U25A C27A A28G G36A, the self-cleavage came to 0.07.
Then A3U A21G U43A, with 0.56; and A3U A18G U26A A57G, with 0.46; and A3U A13G A15G A28G A47G U54A, with 0.39.
As to A3G U54A U58C U66C, the self-cleavage is 0.24.
The same measure for A3U A13G C29A A47G U69A U72C U80C: 0.11; for A3G U66G U78C: 0.39; for A3U A21G U26C A28G: 0.12.
Then A3G U54C U60A A64U U74A, with 0.31.
The same measure for A3U A20G C27A U60C U69A: 0.11; for A3U A18G U25C U51A A64U U66A: 0.26.
With A3U A18U A45G, the self-cleavage was 0.63.
The same measure for A3G U43C U74A: 1.02; for A3U A18U U67C: 0.53.
For the variant A3U A18U A20G C39U U49C U58C, the self-cleavage stood at 0.08.
Take A3U A13U A57G U76C U80A: the self-cleavage worked out at 1.27.
The same measure for A3G U67A C81A: 0.64; for A3U A18G A47U U67C: 0.17; for A3U A13G U41A C50U A64U U69C: 0.09.
Consider A3U A13U U26C U49C A64G C79A, for which the self-cleavage stood at 0.32.
The same measure for A3U A13U A35U U43C: 0.53; for A3U A5G A18G A28G U72A: 0.31.
The same measure for A3U A13U A20U U41C: 0.48; for A3U A20G A21U C29A: 0.44; for A3G U60C G61A: 0.42.
With A3U A13G A35U U67C, the self-cleavage is 0.33.
The same measure for A3G U43G A47G U58A U60A A65G G70A: 0.01.
The same measure for A3U A15U G30A U51A G63U A64G U80C: 0.09; for A3U A18U A28C: 0.18.
The same measure for A3U A13G U41A U58C A64G U76C: 0.16; for A3U A20U U41C U49A A57G: 0.31.
Regarding A3G U60C U74G, the self-cleavage was determined as 0.8.
Then A3U A20U A35G U58A A75G, with 0.34; and A3G U41C C44A U48A U54C C68G, with 0.25.
The same measure for A3U A15C A21G A28C U72C U80C: 0.18.
Then A3U A20G A35U C39U U72A U80C, with 0.13.
As for A3U A13U A35U U76C, the self-cleavage stood at 0.85.
The same measure for A3U A5C C38G A45U U49C: 0.15.
The same measure for A3U A20C U48C: 0.52; for A3G U67C U78C: 0.37; for A3U A15G U48C: 0.53.
As for A3U A18G A35G U80A, the self-cleavage stood at 0.61.
Then A3G U43C U51C A57U, with 0.28; and A3U A21G A47U U48A G73A, with 0.21.
For A3G U51A A56G U58C, the self-cleavage was found to be 0.19.
Then A3U A5G G7U A18G A28U A45G A65G, with 0.3; and A3U A5G G7C G9A U41C A75G, with 0.51; and A3U A20G U78C U80C, with 0.62.
The same measure for A3U A15U C39U: 0.69.
Then A3U A15G U49C, with 0.63; and A3U A5G C39G U67A, with 0.21; and A3U A5C G30A U72C, with 0.17.
Regarding A3U A18U A45G A56G, the self-cleavage worked out at 0.31.
The same measure for A3U A18G G24A U54C A56G: 0.2.
Then A3G U54A G70C A77G, with 0.33; and A3G U51C U58C U76C, with 0.24; and A3U A13G U54A A65G, with 0.29.
As to A3U A13U C29U, the self-cleavage came out at 0.85.
The same measure for A3U A13U A15C G16U U25C: 0.1; for A3G U41A U76A: 0.3.
The same measure for A3U A18U U31C C38U U67G: 0.12.
